About 65 (0.1%) of roughly 45,000 compounds were called active. The call rests on the fitted dose curve; in most records, active means well fitted activation curve with a large enough effect; inconclusive means small, poorly fitted or top-dose-only effect; inactive means no such curve, though single readings can be large or run the other way. Some of the results follow.
molecular target: Galactocerebrosidase (Homo sapiens) (UniProt P54803); assay: A Novel Cell-Based Assay to Identify Small Molecules for B -Galactocerebrosidase; conditions: 145M-Twi-hGALC-G270D cells (Twitcher mouse brain line with human GALC G270D), HMU-beta-Gal fluorescence, 48 h; series mostly up to 57.5 µM; activation: at the top concentration; further: 0% is about no effect; nearly all actives have a fitted effect of over 65% in size
Outline: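 Fluorescence readout: HMU-β-gal cleavage by mutant GALC (0.1 mM final, citrate/phosphate pH 5.2 with 1 mg/mL taurocholate), stopped with carbonate/bicarbonate plus Triton X-100. Cells: murine Twitcher 145M-Twi expressing human G270D GALC; qHTS for activators.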

UniProt P54803, sequence (P54803 whole entry, looked up): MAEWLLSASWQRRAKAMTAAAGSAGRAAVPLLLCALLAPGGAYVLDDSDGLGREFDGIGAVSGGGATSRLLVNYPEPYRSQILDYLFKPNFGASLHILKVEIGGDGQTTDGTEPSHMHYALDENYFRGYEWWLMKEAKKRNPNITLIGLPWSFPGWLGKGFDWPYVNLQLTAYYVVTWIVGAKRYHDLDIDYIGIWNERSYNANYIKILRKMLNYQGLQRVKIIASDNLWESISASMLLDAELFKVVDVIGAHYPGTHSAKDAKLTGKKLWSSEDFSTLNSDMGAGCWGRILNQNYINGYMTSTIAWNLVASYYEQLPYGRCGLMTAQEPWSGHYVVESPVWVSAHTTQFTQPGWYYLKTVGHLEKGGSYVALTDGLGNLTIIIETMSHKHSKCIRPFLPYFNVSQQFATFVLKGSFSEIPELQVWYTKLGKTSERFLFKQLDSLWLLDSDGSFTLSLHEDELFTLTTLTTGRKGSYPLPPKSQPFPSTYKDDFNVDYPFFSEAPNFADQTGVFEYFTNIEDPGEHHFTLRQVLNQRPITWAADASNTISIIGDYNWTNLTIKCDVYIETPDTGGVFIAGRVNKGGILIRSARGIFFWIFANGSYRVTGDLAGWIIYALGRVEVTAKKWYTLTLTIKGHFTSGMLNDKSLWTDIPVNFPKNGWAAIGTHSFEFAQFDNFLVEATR

SMILES	activation
CCOc1ccc(NC(=O)Cc2coc3ccc(C)cc23)cc1	inactive: -3.31%
COc1ccc(-c2cc(C(F)F)n3ncc(C(=O)Nc4cc(OC)ccc4OC)c3n2)cc1	inactive: -5.96%
Cc1cccn2cc(-c3cccc(NS(=O)(=O)c4ccc(Cl)c(Cl)c4)c3)nc12	inactive: -26.8%
CCc1ccc2occ(CC(=O)Nc3c(C(=O)Nc4ccc(OC)cc4)oc4ccccc34)c2c1	inactive: -19.2%
O=C(NCc1ccccc1)c1nnc(Cc2cccc(F)c2)o1	inactive: -15.6%
O=C(NCC(c1ccc2c(c1)OCO2)N1CCOCC1)c1ccccc1F (stereo not given)	inactive: 2.44%
CC(CNC(=O)Cn1ccc2cc(S(=O)(=O)N3CCCCC3)ccc21)c1ccccc1 (stereo not given)	inactive: 7.03%
CC(C)(C)c1ccc(C(O)CCCN2CCC(C(O)(c3ccccc3)c3ccccc3)CC2)cc1 (stereo not given)	inactive: -9.93%
COc1ccc(C2c3cccn3CCN2S(=O)(=O)c2ccccc2[N+](=O)[O-])cc1OC (stereo not given)	inactive: -19.1%
CCOc1ccc(CCNC(=O)C2CCN(C(=O)N3CC(CC)Oc4ccc(C)cc43)CC2)cc1 (stereo not given)	inactive: -39.8%
Cc1ccc2nc(Cl)c3cc(C(=O)N(C)C4CCCCC4)sc3c2c1	inactive: -5.27%
Cc1cc2nn(-c3ccc(F)cc3)nc2cc1NC(=O)c1ccc(OC(C)C)cc1	inactive: -11.1%
COc1cccc(Cn2c(=O)n(-c3cccc(Cl)c3C)c(=O)c3c4c(sc32)CN(C(C)=O)CC4)c1	inactive: 0.583%
Cc1ccc(NC(=O)CSc2nc3ccc(NC(=O)c4cccs4)cc3s2)c(C)c1	inactive: -30.5%
CCOC(=O)c1c(C)oc2nc(C)nc(NCC3CCN(Cc4cccc(C)c4)CC3)c12	inactive: -23.9%
CCn1c(CNC(=O)c2ccc(OC)cc2)nnc1SCC(=O)Nc1cccc(C)c1C	inactive: -9.1%
Cc1c(C(=O)N(C)C)sc2c1c(=O)n(-c1ccc(F)cc1)c(=O)n2Cc1cc(=O)n2ccccc2n1	inactive: -10.6%
Nc1c(C(=O)Nc2ccc(Cl)c(C(F)(F)F)c2)sc2nc(-c3ccncc3)ccc12	inactive: -21.9%
CCN(CC)S(=O)(=O)c1ccc2c(c1)c(=O)c(C(=O)NCc1ccc(Cl)cc1)cn2C	inactive: -12%
COc1ccc(CC(=O)NCc2ccc3c(c2)CCN3C(C)=O)cc1OC	inactive: -13.3%

SMILES	activation
COc1cccc(CNC(=O)C2Cc3cc(S(=O)(=O)N4CCCCCC4)ccc3N2C(C)=O)c1 (stereo not given)	inactive: -11%
CCOC(=O)C1CCN(C(=O)c2ccc3c(c2)sc2nc(-c4ccccc4)cn23)CC1	inactive: -17.3%
Cn1nc(C(=O)N2CCN(c3cccc(Cl)c3)CC2)c2c1-c1ccccc1S(=O)(=O)C2	inactive: -10.3%
CCCS(=O)(=O)c1ncc(Cl)c(C(=O)Nc2c(C(=O)c3ccccc3)oc3ccccc23)n1	inactive: -22.7%
CCCCCn1c(NCc2ccccc2OC)nc2ccccc21	inactive: 0.765%
NCCCNCCSP(=O)(O)O	inactive: -17.9% [at 11.5 µM]
CCc1cc2c(cc3c(=O)n(CC(=O)N4CCC(C)CC4)nc(CC)n32)s1	inactive: -14.4%
O=C1CCc2cc(S(=O)(=O)NCc3ccc(F)cc3)cc3c2N1CC3	inactive: -16.9%
COc1ccc(C(=O)COC(=O)c2cc(-c3ccccc3)nc3c(C)cccc23)cc1	inactive: -8.69%
CC(=O)N1CCCc2ccc(NS(=O)(=O)c3ccc(C)c(C)c3)cc21	inactive: -15.8%
CCC(=O)N1CCc2cc(Br)cc(S(=O)(=O)N3CCCC(C(=O)NCc4cccc(OC)c4)C3)c21 (stereo not given)	inactive: 6.35%
Cc1nc2c(-c3ccccc3)c(C)nn2c(C)c1CCC(=O)N1CCN(c2ccccc2)CC1	inactive: -25.3%
CCc1ccc(-n2c(=O)c3ccc(C(=O)NCCc4ccccc4)cc3n(CC(N)=O)c2=O)cc1	inactive: -2.51%
O=C(Nc1nnc(S(=O)(=O)N2CCOCC2)s1)c1cccc(F)c1	inactive: -25.5%
CCS(=O)(=O)N1CCc2cc(C(=O)Nc3ccc(C)c(Cl)c3)ccc21	inactive: -6.94%
CCCCOc1ccc(C(=O)NCC2(N3CCN(C)CC3)CCCCC2)cc1	inactive: -1.87%
COc1ccc(Cn2cc(C(=O)c3ccc(OC)cc3)c(=O)c3cc4c(cc32)OCCO4)cc1	inactive: -16.1%
COc1ccc(OC)c(NC(=O)c2cn3c4c(ccc(Cl)c4c2=O)OC(C)C3)c1 (stereo not given)	inactive: -14.9%
CCOC(=O)C1CCN(c2nc(-c3ccc(Br)cc3)nc3ccccc23)CC1	inactive: -14.2%
Cc1ccc2c(c1)C(c1ccccc1)N(C(=O)c1ccc(OC(C)C)cc1)CC(=O)N2 (stereo not given)	inactive: -26.7%

SMILES	activation
Cc1cccc(CCNC(=O)Cn2ncc3c(=O)oc4ccccc4c32)c1	inactive: -23.1%
Cc1c2cnn(-c3ccccc3)c(=O)c2c(C)n1CC(=O)NCc1ccccc1Br	inactive: -8.39%
O=C(Nc1ccc(Cl)cc1)N1CCC(CN2CCCC2)CC1	inactive: -1.05%
CC(=O)c1cccc(NC(=O)C(Cc2ccccc2)NS(=O)(=O)c2ccc(Br)s2)c1 (stereo not given)	inactive: -7.88%
CN(C)c1ccc(CNC(=O)CCCN2C(=O)CCn3nc(-c4cccn4C)cc32)cc1	inactive: -14.6%
CCN(CCCNC(=O)c1nn(-c2ccc(C)cc2)c(=O)c2c1c1ccccc1n2C)c1ccccc1	inactive: -18.1%
COc1c(Cl)cc(Cl)cc1/C=C(\C#N)c1nc2ccccc2[nH]1	inactive: 4.86%
CCc1ccc(-n2c(=O)c3c(C)c(C(=O)N(C)C)sc3n(Cc3cccc(C)c3)c2=O)cc1	inactive: -10.2%
COc1cccc(CNC(=O)CCS(=O)(=O)c2cc3c(cc2C)NC(=O)CO3)c1	inactive: -11.3%
COc1ccc(C(=O)Nc2ccc(-c3cc4ccccc4oc3=O)c(C)c2)cc1Br	inactive: -13.8%
Cc1ccc(C)c(N2CCN(C(=O)CCCn3ncn4c(cc5occc54)c3=O)CC2)c1	inactive: -22.2%
Cc1ccc(Cn2c(=O)n(Cc3nc(-c4ccccc4)no3)c(=O)c3cc4c(cc32)OCO4)cc1	inactive: 4.46%
COc1ccccc1OCCCn1c(C2CC(=O)N(c3ccccc3Cl)C2)nc2ccccc21 (stereo not given)	inactive: 7.83%
COc1ccc(C(=O)Nc2ccc3nc(SCc4ccc(C)cc4)sc3c2)cc1	inactive: -20.2%
Cc1coc2cc3oc(=O)c(CC(=O)NCc4ccc(F)cc4)c(C)c3cc12	inactive: -0.405%
COc1cc(-c2nc3sccn3c2Nc2cccc(C)c2)ccc1O	inactive: -29.9%
Cc1ccc(O)c(-c2ccnc3cc(-c4ccc(Cl)cc4)nn23)c1	inactive: -6.88%
Cc1nc(-c2ccc(Cl)cc2)sc1CCNC(=O)c1ccco1	inactive: -2.98%
Cc1ccc(-n2c(=O)c3c4c(sc3n(Cc3ccccc3F)c2=O)CCC4)cc1C	inactive: -20.1%
Oc1ccccc1-c1nc(/C=C/c2ccccc2Cl)no1	inactive: -10%

Reference: PubChem BioAssay AID1159614 (National Center for Advancing Translational Sciences (NCATS), 2016)
